The supplement of paper PMC4967469
By IC50 is meant the dose at which the fit gives 50% viability; a limit (>, <) means that the fit lies beyond the doses tested. AUC, from the same fit, is the share of area under the viability curve across the 256-fold dose range; the more sensitive the line, the further below 1. The top dose, if marked as inferred, is not printed in the source and was worked back from the curve model. For some of these results: An entry number marks a drug with two screens in the source, which often give different values.

Key:
[1] = compound: NC(=O)c1ncn([C@@H]2O[C@H](CO)[C@@H](O)[C@H]2O)c1N [AICAR]; test: Viability of human cancer cell lines after 72 h of drug (GDSC screen); conditions: top dose 2000 µM; top dose inferred
Protocol: (§1)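 Human cancer cell lines in 384-well plates, medium with 10% serum, drug for 72 h over a 256-fold dose range (nine 2-fold or five 4-fold steps up to the top dose). Adherent lines were fixed and stained with the nucleic acid dye Syto60, suspension lines read with resazurin; signal relative to control wells, capped at 0 and 100%. One two-parameter sigmoid per drug and line, fitted in a mixed model over all curves with the slope shared within a line.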

[2] = compound: O=c1[nH]c2ccccc2n1C1CCN(Cc2ccc(-c3[nH]c4cc5ncnc5cc4nc3-c3ccccc3)cc2)CC1 [AKT inhibitor VIII]; test: as above; conditions: top dose inferred
Protocol: as §1

[3] = top dose 2.56 µM, screen: GDSC drug entry 171
[4] = top dose 10.24 µM, screen: GDSC drug entry 228

Row | Cell Line | AUC [1] | IC50 [1] [µM] | AUC [2, 3] | IC50 [2, 3] [µM] | AUC [2, 4] | IC50 [2, 4] [µM]
1 | CAL-12T (non-small cell lung carcinoma, adherent) | 0.762 | 797 | 0.953 | > 2.56 | 0.732 | 3.2
2 | CAL-27 (head and neck, adherent) | 0.76 | 715 | 0.94 | > 2.56 | 0.94 | > 10.2
3 | CAL-29 (bladder, adherent) | 0.882 | > 2000 | 0.887 | > 2.56 | 0.82 | 6.47
4 | CAL-33 (head and neck, adherent) | 0.768 | 752 | 0.887 | > 2.56 | 0.797 | 4.85
5 | CAL-39 (cervix, adherent) | 0.872 | > 2000 | 0.969 | > 2.56 | 0.892 | > 10.2
6 | CAL-51 (breast, adherent) | 0.933 | > 2000 | 0.906 | > 2.56 | 0.956 | > 10.2
7 | CAL-62 (thyroid, adherent) | 0.936 | > 2000 | 0.979 | > 2.56 | 0.977 | > 10.2
8 | CAL-72 (osteosarcoma, adherent) | 0.861 | > 2000 | 0.961 | > 2.56 | 0.982 | > 10.2
9 | CAL-78 (chondrosarcoma, adherent) | 0.913 | > 2000 | 0.971 | > 2.56 | 0.986 | > 10.2
10 | CAL-85-1 (breast, adherent) | 0.93 | > 2000 | 0.887 | > 2.56 | 0.852 | > 10.2
11 | CAL-120 (breast, adherent) | 0.737 | 734 | 0.966 | > 2.56 | 0.89 | > 10.2
12 | CAPAN-1 (pancreas, adherent) | 0.938 | > 2000 | 0.966 | > 2.56 | 0.928 | > 10.2
13 | CCF-STTG1 (glioma, adherent) | 0.894 | > 2000 | 0.88 | > 2.56 | 0.98 | > 10.2
14 | CCK-81 (large intestine, adherent) | 0.952 | > 2000 | 0.99 | > 2.56 | 0.763 | 3.49
15 | CCRF-CEM (lymphoblastic leukaemia, suspension) | 0.644 | 291 | 0.91 | > 2.56 | 0.497 | 0.631
16 | CESS (acute myeloid leukaemia, suspension) | 0.902 | 1960 | 0.875 | 1.92 | 0.339 | 0.246
17 | CGTH-W-1 (thyroid, adherent) | 0.9 | > 2000 | 0.937 | > 2.56 | 0.927 | > 10.2
18 | CHL-1 (melanoma, adherent) | 0.87 | 1680 | 0.958 | > 2.56 | 0.915 | > 10.2
19 | CHP-126 (neuroblastoma, suspension) | 0.603 | 242 | 0.98 | > 2.56 |  | 
20 | CHP-212 (neuroblastoma, adherent) | 0.945 | > 2000 | 0.873 | 2.14 | 0.731 | 2.73
21 | CHSA0011 (chondrosarcoma, adherent) | 0.957 | > 2000 | 0.974 | > 2.56 | 0.924 | > 10.2
22 | CHSA0108 (chondrosarcoma, adherent) | 0.926 | > 2000 | 0.953 | > 2.56 | 0.971 | > 10.2
23 | CHSA8926 (chondrosarcoma, adherent) | 0.943 | > 2000 | 0.978 | > 2.56 | 0.954 | > 10.2
24 | CL-11 (large intestine, adherent) | 0.987 | > 2000 | 0.987 | > 2.56 | 0.987 | > 10.2
25 | COLO-205 (large intestine, suspension) | 0.918 | > 2000 | 0.848 | 1.86 | 0.891 | > 10.2
26 | COLO-320-HSR (large intestine, suspension) | 0.633 | 276 | 0.99 | > 2.56 | 0.814 | 4.68
27 | COLO-668 (small cell lung carcinoma, adherent) | 0.956 | > 2000 | 0.948 | > 2.56 | 0.713 | 2.56
28 | COLO-678 (large intestine, semi-adherent) | 0.881 | > 2000 | 0.966 | > 2.56 | 0.958 | > 10.2
29 | COLO-680N (oesophagus, adherent) | 0.755 | 794 | 0.92 | > 2.56 | 0.965 | > 10.2
30 | COLO-684 (endometrium, suspension) | 0.761 | 795 | 0.932 | > 2.56 | 0.577 | 1.06
